B1: GPR68, Q15743 (parent)
chain: MGNITADNSSMSCTIDHTIHQTLAPVVYVTVLVVGFPANCLSLYFGYLQIKARNELGVYLCNLTVADLFYICSLPFWLQYVLQHDNWSHGDLSCQVCGILLYENIYISVGFLCCISVDRYLAVAHPFRFHQFRTLKAAVGVSVVIWAKELLTSIYFLMHEEVIEDENQHRVCFEHYPIQAWQRAINYYRFLVGFLFPICLLLASYQGILRAVRRSHGTQKSRKDQIQRLVLSTVVIFLACFLPYHVLLLVRSVWEASCDFAKGVFNAYHFSLLLTSFNCVADPVLYCFVSETTHRDLARLRGACLAFLTCSRTGRAREAYPLGAPEASGKSGAQGEEPELLTKLHPAFQTPNSPGSGGFPTGRLA

In series [1] the parent is B1. Description: cAMP reporter score (Enrich2 score, wild type = 0); higher = more signal; HEK293T, FACS bins.
The variants in series [2] derive from B1. As to the kind of experiment: surface expression score (Enrich2 score, wild type = 0); higher = more signal; HEK293T, FACS bins.

The least precise scores are not listed. Two further conditions of the source, in which the scores hardly spread, are not listed. In variant names, del marks residues removed and ins residues inserted between the two positions. For some assays here: The concentration of ogerin is not given here.

Take A38C: the cAMP reporter score in series [1] (pH 5.5) is -0.427; in series [1] (pH 6), -0.187; in series [1] (pH 6, modulator: ogerin), -0.062; in series [1] (pH 6.5, modulator: ogerin), -0.585. Also, the surface expression score in series [2] is -1.08.

On to A38M, for which the cAMP reporter score was -1.1 in series [1] (pH 5.5); -0.247 in series [1] (pH 6); -1.44 in series [1] (pH 6, modulator: ogerin); -0.324 in series [1] (pH 6.5, modulator: ogerin). In series [2], the surface expression score is 0.501.

Take K51_R53del: the cAMP reporter score in series [1] (pH 5.5) was -1.51; in series [1] (pH 6) it was -1.56; in series [1] (pH 6.5, modulator: ogerin) it was -1.46. For the same variant, the surface expression score in series [2] was -3.35.

For L43I, the cAMP reporter score is 0.667 in series [1] (pH 5.5); -0.848 in series [1] (pH 6); 0.67 in series [1] (pH 6, modulator: ogerin); 0.32 in series [1] (pH 6.5, modulator: ogerin).

For the variant L43Y, the cAMP reporter score in series [1] (pH 5.5) is -0.243; in series [1] (pH 6), -0.4; in series [1] (pH 6, modulator: ogerin), -1.8; in series [1] (pH 6.5, modulator: ogerin) it was -0.775.

For L43F, the cAMP reporter score in series [1] (pH 5.5) is -0.512; in series [1] (pH 6), 1.09; in series [1] (pH 6, modulator: ogerin) it was -0.498; in series [1] (pH 6.5, modulator: ogerin), 0.62. Besides, in series [2], the surface expression score was -0.944.

For the variant L43E, the cAMP reporter score in series [1] (pH 5.5) was -1.6; in series [1] (pH 6), -0.052; in series [1] (pH 6, modulator: ogerin), -1.2; in series [1] (pH 6.5, modulator: ogerin) it was -0.993. In series [2], the surface expression score is -2.44.

For L43C, the cAMP reporter score was 0.051 in series [1] (pH 5.5); -0.893 in series [1] (pH 6); 0.274 in series [1] (pH 6, modulator: ogerin); -0.02 in series [1] (pH 6.5, modulator: ogerin). In addition, the surface expression score in series [2] was -3.06.

For the variant L43H, the cAMP reporter score in series [1] (pH 5.5) was -1.86; in series [1] (pH 6), -0.739; in series [1] (pH 6, modulator: ogerin), -1.58; in series [1] (pH 6.5, modulator: ogerin), -0.573. In addition, in series [2], the surface expression score is -2.1.

Regarding L43N, the cAMP reporter score is -1.53 in series [1] (pH 5.5); -1.64 in series [1] (pH 6, modulator: ogerin); -1.33 in series [1] (pH 6.5, modulator: ogerin). In series [2], the surface expression score is -3.55.

L43M: the cAMP reporter score in series [1] (pH 5.5) was 1.35; in series [1] (pH 6), 0.038; in series [1] (pH 6, modulator: ogerin), 1.66; in series [1] (pH 6.5, modulator: ogerin) it was 0.929. The surface expression score in series [2] is -1.38.

As for L43Q, the cAMP reporter score was -1.21 in series [1] (pH 5.5); -0.821 in series [1] (pH 6); -0.57 in series [1] (pH 6.5, modulator: ogerin). Further, the surface expression score in series [2] was -3.68.

For L43K, the cAMP reporter score in series [1] (pH 5.5) is -0.388; in series [1] (pH 6) it was -0.235; in series [1] (pH 6, modulator: ogerin), -1.39; in series [1] (pH 6.5, modulator: ogerin), -1.07. For the same variant, the surface expression score in series [2] is -2.49.

L43W: the cAMP reporter score is -0.807 in series [1] (pH 5.5); -0.89 in series [1] (pH 6); -0.967 in series [1] (pH 6, modulator: ogerin); -1.39 in series [1] (pH 6.5, modulator: ogerin). Moreover, the surface expression score in series [2] is -2.48.

For L43T, the cAMP reporter score in series [1] (pH 5.5) is -1.28; in series [1] (pH 6), -0.66; in series [1] (pH 6, modulator: ogerin), -1.33; in series [1] (pH 6.5, modulator: ogerin), -0.976. Further, the surface expression score in series [2] is -1.86.

Regarding L43D, the cAMP reporter score is -1.4 in series [1] (pH 5.5); -2.05 in series [1] (pH 6); -2.14 in series [1] (pH 6, modulator: ogerin); -0.367 in series [1] (pH 6.5, modulator: ogerin). For the same variant, the surface expression score in series [2] was -2.71.

For the variant L43R, the cAMP reporter score is -1.55 in series [1] (pH 5.5); -0.527 in series [1] (pH 6); -1.41 in series [1] (pH 6, modulator: ogerin); -0.676 in series [1] (pH 6.5, modulator: ogerin). The surface expression score in series [2] was -3.02.

As for L43P, the cAMP reporter score in series [1] (pH 5.5) was -1.49; in series [1] (pH 6), -0.486; in series [1] (pH 6, modulator: ogerin), -0.313; in series [1] (pH 6.5, modulator: ogerin) it was -0.978. For the same variant, in series [2], the surface expression score is -2.38.

As to L43V, the cAMP reporter score in series [1] (pH 5.5) was -1.15; in series [1] (pH 6, modulator: ogerin) it was -2.02; in series [1] (pH 6.5, modulator: ogerin), -0.746. For the same variant, the surface expression score in series [2] is -2.16.

As to L43S, the cAMP reporter score is -0.843 in series [1] (pH 5.5); -0.065 in series [1] (pH 6); -1.41 in series [1] (pH 6, modulator: ogerin); -0.874 in series [1] (pH 6.5, modulator: ogerin). Moreover, the surface expression score in series [2] was -2.22.

As for L43A, the cAMP reporter score is -0.045 in series [1] (pH 5.5); -0.31 in series [1] (pH 6); -0.248 in series [1] (pH 6, modulator: ogerin); -1.25 in series [1] (pH 6.5, modulator: ogerin). Besides, in series [2], the surface expression score is -1.88.

As to N54T, the cAMP reporter score was -0.505 in series [1] (pH 5.5); -1.1 in series [1] (pH 6, modulator: ogerin); -0.771 in series [1] (pH 6.5, modulator: ogerin). Besides, in series [2], the surface expression score is -2.45.

Take N54K: the cAMP reporter score in series [1] (pH 5.5) was -0.474; in series [1] (pH 6), -0.764; in series [1] (pH 6, modulator: ogerin), -0.88; in series [1] (pH 6.5, modulator: ogerin), -0.722. Also, the surface expression score in series [2] was -1.68.

As for N54Y, the cAMP reporter score in series [1] (pH 5.5) was -0.753; in series [1] (pH 6, modulator: ogerin), -2.92; in series [1] (pH 6.5, modulator: ogerin), -0.462.

N54D: the cAMP reporter score in series [1] (pH 5.5) is -0.766; in series [1] (pH 6), -0.348; in series [1] (pH 6, modulator: ogerin), -0.713; in series [1] (pH 6.5, modulator: ogerin) it was -0.839. For the same variant, in series [2], the surface expression score is -0.183.

For N54Q, the cAMP reporter score in series [1] (pH 5.5) was -0.548; in series [1] (pH 6), -1.23; in series [1] (pH 6.5, modulator: ogerin) it was -2.28. Besides, in series [2], the surface expression score was -1.28.

N54R: the cAMP reporter score is -0.466 in series [1] (pH 5.5); -0.341 in series [1] (pH 6); -1.24 in series [1] (pH 6, modulator: ogerin); -0.666 in series [1] (pH 6.5, modulator: ogerin). The surface expression score in series [2] was -1.19.

Consider N54V, for which the cAMP reporter score in series [1] (pH 5.5) was -1.55; in series [1] (pH 6), -0.41; in series [1] (pH 6.5, modulator: ogerin), -0.852. Besides, in series [2], the surface expression score is -1.71.

Regarding N54W, the cAMP reporter score in series [1] (pH 5.5) was -2.29; in series [1] (pH 6) it was -1.17; in series [1] (pH 6, modulator: ogerin), -2.08; in series [1] (pH 6.5, modulator: ogerin) it was -1.59. In series [2], the surface expression score was -2.05.

Consider N54C, for which the cAMP reporter score in series [1] (pH 5.5) was -0.9; in series [1] (pH 6), -1.26; in series [1] (pH 6, modulator: ogerin), -0.726; in series [1] (pH 6.5, modulator: ogerin), -0.448. Besides, in series [2], the surface expression score was -2.01.

In the case of N54P, the cAMP reporter score in series [1] (pH 5.5) is -1.09; in series [1] (pH 6) it was -0.414; in series [1] (pH 6, modulator: ogerin), -1.94; in series [1] (pH 6.5, modulator: ogerin) it was -0.856. Besides, the surface expression score in series [2] was -1.77.

As for N54E, the cAMP reporter score was -1.74 in series [1] (pH 5.5); -1.3 in series [1] (pH 6); -1.62 in series [1] (pH 6, modulator: ogerin); -0.781 in series [1] (pH 6.5, modulator: ogerin). For the same variant, the surface expression score in series [2] was -1.31.

These data come from the GPR68 mutational scans of Howard et al. (2025).
